Test results published in PubChem BioAssay AID1347428 (National Center for Advancing Translational Sciences (NCATS), 2020).
Values joined by “and” are separate entries in the source; they are usually repeats but may differ in a detail not shown here. Equal values may be shown once. Screen size: about 91,000 compounds; about 290 (0.32%) were called active. Inconclusive means that the source gave no clear call. Such entries were picked first, then a sample of the others. Calls follow the shape of the dose curve; as a rule, active = well fitted inhibition curve with a large enough effect; inconclusive = small, poorly fitted or top-dose-only effect; inactive = no such curve, though single readings can be large or run the other way. Where the call is inconclusive, the potency comes from a doubtful curve fit.

Each molecule was assayed against Single-stranded DNA cytosine deaminase (Homo sapiens) (UniProt Q9GZX7) (assay: Primary qHTS assay for inhibitors of Activation Induced Cytidine Deaminase (AID): AID signal). Conditions: AID deamination FRET fluorescence, UDG-coupled, 4 h; series mostly up to 115 µM.
Also: nearly all actives have a fitted effect of over 25% in size.
Potency is read from the fitted curve at half-maximal effect; tags tell the direction and shape of the fitted curve.

Sequence of UniProt Q9GZX7 (Q9GZX7 whole entry, looked up): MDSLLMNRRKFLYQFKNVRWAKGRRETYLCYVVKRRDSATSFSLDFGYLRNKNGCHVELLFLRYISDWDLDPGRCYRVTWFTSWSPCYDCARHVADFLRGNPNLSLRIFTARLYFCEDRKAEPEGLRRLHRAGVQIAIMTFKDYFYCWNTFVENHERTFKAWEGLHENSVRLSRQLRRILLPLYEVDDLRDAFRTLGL

Row | Structure (SMILES) | Potency
1 | COc1ccc(N(CC(=O)N2CCN(c3ccc(F)cc3)CC2)S(=O)(=O)c2c(C)noc2C)cc1 | inconclusive: 39.8 µM [inhibitor, partial curve, poor fit]
2 | O=C(N/N=C/c1ccccc1F)C1CC1 | inactive
3 | CN(C)c1ccc(Nc2ncnc3sc4c(c23)CCCC4)cc1 | inconclusive: 89.1 µM [inhibitor, partial curve, poor fit]
4 | Cc1ccc(NC(NC(=O)C(C)(C)C)C(Cl)(Cl)Cl)cc1 (stereo unspecified) | inactive
5 | Cc1ccc2[nH]c(=O)c3cc(C(=O)NCCCN4CCC(C)CC4)sc3c2c1 | inconclusive: 50.1 µM [inhibitor, partial curve, poor fit]
6 | CC(C)NS(=O)(=O)c1ccc(Cl)c(C(=O)NCc2ccc(-c3nc4ccccc4s3)o2)c1 | inactive
7 | Cc1ccc(C)c(N2N=C(C(=O)Nc3ccc(S(=O)(=O)N4CCCCC4)cc3)CCC2=O)c1 | inactive
8 | CCc1ccc(C(=O)NCC(O)c2ccccc2)cc1 (stereo unspecified) | inactive
9 | O=S(=O)(c1ccc(Cl)cc1)c1nc(-c2ccco2)oc1SCc1ccccc1F | inconclusive: 17.8 µM [inhibitor, single point]
10 | O=C(Nc1ccc(CSc2ccccc2)cc1)c1ccc(F)cc1 | inactive
11 | COc1cccc(Cc2nc3ccccc3nc2SCC(=O)N2CCCc3ccccc32)c1 | inconclusive: 31.6 µM [inhibitor, partial curve, poor fit]
12 | Cc1ccc(C)c(CSc2nnc(C)n3c2cc2sccc23)c1 | inconclusive: 56.2 µM [inhibitor, partial curve, poor fit]
13 | CC(Nc1ccc(F)cc1)C(=O)Nc1ccc(Cl)cn1 (stereo unspecified) | inactive
14 | Cc1ccc(C)c(N2CCN(CCCNC(=O)c3cnn(-c4ccc(F)cc4)c3C3CCN(C(=O)OC(C)(C)C)CC3)CC2)c1 | active: 28.2 µM
15 | Cc1c(Cl)cccc1-n1ncc(C(=O)NC2CCCCC2)c1C1CCN(C(=O)OC(C)(C)C)CC1 | inconclusive: 44.7 µM [inhibitor, partial curve, poor fit]
16 | CCOC(=O)c1cccc(NC(=O)c2oc3c(c2C)-c2nn(CC)cc2CC3)c1 | active: 39.8 µM
17 | CNC(=O)c1ccc(NC(=O)C2CCN(S(=O)(=O)c3ccc(C)cc3C)CC2)cc1 | inactive
18 | COc1ccc(OC)c(Nc2sc(C(=O)c3ccccc3)c(N)c2S(=O)(=O)c2ccccc2)c1 | inconclusive: 28.2 µM [inhibitor, partial curve, poor fit]
19 | O=c1oc2ccccc2c(N2CCN(c3ccc(F)cc3)CC2)c1CN1CCCC1 | inconclusive: 50.1 µM [inhibitor, partial curve, poor fit]
20 | COc1ccc(N2CCN(S(=O)(=O)c3ccc(-c4ccno4)cc3OC)CC2)cc1 | inconclusive: 39.8 µM [inhibitor, partial curve, poor fit]
21 | CC(C)NC[C@H](O)c1ccc(O)c(O)c1 | inconclusive: 100 µM [inhibitor, single point] and active: 79.4 µM

Row | Structure (SMILES) | Potency
22 | N#Cc1ccc(COC(=O)c2ccc[nH]2)cc1 | inactive
23 | OCC1O[C@H]([S-])[C@H](O)[C@@H](O)[C@@H]1O.[Au+] (stereo partly specified) | active: 25.1 µM
24 | COc1ccc(CCNC(=O)c2cccc(Nc3nc4ccccc4nc3-n3nc(C)cc3C)c2)cc1OC | inconclusive: 3.16 µM [inhibitor, full curve, poor fit]
25 | Cc1ccc(-c2noc(-c3ccc(N4CCN(C)CC4)c([N+](=O)[O-])c3)n2)cc1 | inconclusive: 79.4 µM [inhibitor, partial curve, poor fit]
26 | COc1cc2cc(CNc3ccccc3)c(=O)n(CC(=O)Nc3ccc(C)c(Cl)c3)c2cc1OC | inconclusive: 79.4 µM [inhibitor, single point]
27 | COc1ccccc1CNC(=O)C(C)n1c(=O)cc(-c2ccccc2)c2c(C)nn(C)c21 (stereo unspecified) | inconclusive: 39.8 µM [inhibitor, partial curve, poor fit]
28 | Clc1ccc(C(c2ccc(Cl)cc2)n2cc[n+](CC(OCc3ccc(Cl)cc3Cl)c3ccc(Cl)cc3Cl)c2)cc1 (stereo unspecified) | inconclusive: 79.4 µM [inhibitor, partial curve, poor fit]
29 | Cc1cc(C)cc(C(=O)NCCc2sc(-c3ccc(F)cc3)nc2C)c1 | inconclusive: 31.6 µM [inhibitor, partial curve, poor fit]
30 | Cc1nn(C)c2c1c(C(F)(F)F)cc(=O)n2Cc1ccc(Br)cc1F | inconclusive: 79.4 µM [inhibitor, partial curve]
31 | CSc1ccc(/C=[N+](/[O-])c2ccccc2)cc1 | inactive
32 | Cn1c(=O)c2c(nc(CN3CCN(c4ccccc4F)CC3)n2Cc2ccc(F)cc2)n(C)c1=O | inconclusive: 50.1 µM [inhibitor, partial curve, poor fit]
33 | CC(C)(C)OC(=O)N1CCC(c2c(C(=O)NCCN3CCOCC3)cnn2-c2cccc(Cl)c2)CC1 | inconclusive: 63.1 µM [inhibitor, partial curve, poor fit]
34 | CCc1ccc(/C=C(/C#N)c2nc(-c3ccc(C)cc3)cs2)cc1 | inconclusive: 2.82 µM [inhibitor, full curve, poor fit]
35 | O=C(NCc1ccc(Cl)cc1)C1CCC(CNS(=O)(=O)c2ccccc2)CC1 (stereo unspecified) | inconclusive: 89.1 µM [inhibitor, single point]
36 | CCN(CC)c1nn2c(=O)c(C(=O)NCCc3ccccc3C)cnc2s1 | inconclusive: 56.2 µM [inhibitor, partial curve, poor fit]
37 | CCOc1ccc(N(C)C(=O)C2CCN(S(=O)(=O)c3c(C)noc3/C=C/c3ccc(C)cc3)CC2)cc1 | inconclusive: 10 µM [inhibitor, partial curve, poor fit]
38 | CCOC(=O)c1ccccc1NC(=O)CN1C(=O)CC(c2ccccc2)Sc2ccccc21 (stereo unspecified) | inconclusive: 11.2 µM [inhibitor, full curve, poor fit]
39 | CCCCN(Cc1ccccc1)C(=O)c1cc2c(=O)n3ccccc3nc2n1C | inconclusive: 79.4 µM [inhibitor, partial curve, poor fit]
40 | CCn1c(CC23CC4CC(CC(C4)C2)C3)nnc1SCc1ccc(F)cc1 | inactive
41 | CCOc1ccc(CC(=O)NCc2ccc3c(c2)CCN3C(=O)c2ccccc2)cc1OCC | inconclusive: 39.8 µM [inhibitor, partial curve, poor fit]
42 | CSCCC(=O)N1CCN(c2oc(-c3ccco3)nc2C#N)CC1 | inactive

Row | Structure (SMILES) | Potency
43 | Cc1ccc(C)c(N2CCN(S(=O)(=O)c3ccc(C(=O)N(C)C)s3)CC2)c1 | inconclusive: 56.2 µM [inhibitor, partial curve, poor fit]
44 | CCCCN(CC)CCCNC(=O)c1cn(CC)c2ccc(S(=O)(=O)N3CCc4ccccc4C3)cc2c1=O | inconclusive: 79.4 µM [inhibitor, partial curve, poor fit]
45 | Cc1sc2ncn(CC(=O)N(C)c3ccc(C(C)C)cc3)c(=O)c2c1S(=O)(=O)N1CCC(C)CC1 | inconclusive: 12.6 µM [inhibitor, full curve, poor fit]
46 | CCNc1ccc2c(cc1=O)[C@@H](NC(C)=O)CCc1cc(OC)c(OC)c(OC)c1-2 | inactive
47 | O=S(Cc1cccc(C(F)(F)F)c1)Cc1c(F)cccc1Cl (stereo unspecified) | inactive
48 | Cc1cc(NC(=O)c2cccn2-c2nnc(N3CCCCC3)s2)ccc1Br | inconclusive: 15.8 µM [inhibitor, full curve, poor fit]
49 | OCCCc1nc2ccccc2s1 | inactive
50 | CCC(C)Nc1nc(-c2ccc(Cl)cc2)cs1 (stereo unspecified) | inconclusive: 25.1 µM [inhibitor, partial curve, poor fit]
51 | O=C(NCCc1ccc(Cl)cc1)c1ccc(CSCc2cccc(Cl)c2)o1 | inconclusive: 22.4 µM [inhibitor, full curve]
52 | Cn1cc(S(=O)(=O)c2cccc(Cl)c2)c(=O)c2cc(F)c(N3CCCCC3)cc21 | inactive
53 | Cc1cccc(OCCCn2c(CCNC(=O)C3CCCCC3)nc3ccccc32)c1 | inconclusive: 44.7 µM [inhibitor, full curve, poor fit]
54 | Cc1cccc(-n2nc(C)c(C(=O)N3CCN(c4ccccc4)CC3)c2-n2cccc2)c1 | inconclusive: 50.1 µM [inhibitor, partial curve, poor fit]
55 | CS(=O)(=O)N(Cc1ccccc1)c1ccc(C(=O)Nc2ccc(Cl)cc2)cc1 | inconclusive: 50.1 µM [inhibitor, partial curve, poor fit]
56 | Cc1c(Cl)ccc2sc(N3CCN(C(=O)C4CC4)CC3)nc12 | inconclusive: 79.4 µM [inhibitor, partial curve, poor fit]
57 | COc1ccc(-c2cc3nc(C)c(CCC(=O)NC(C)c4ccccc4)c(C)n3n2)c(OC)c1 (stereo unspecified) | inconclusive: 79.4 µM [inhibitor, partial curve, poor fit]
58 | COc1cccc(NC(=O)CSc2c3c(nc4ccccc24)CCCC3)c1 | inconclusive: 89.1 µM [inhibitor, single point]
59 | CCOc1ccc(N(CC)S(=O)(=O)N2CCCC(C(=O)Nc3ccc(OC)c(Cl)c3)C2)cc1 (stereo unspecified) | inconclusive: 20 µM [inhibitor, full curve, poor fit]
60 | CCOC(=O)c1ccccc1NC(=O)COC(=O)CC(C)(C)CC1=NS(=O)(=O)c2ccccc2N1 | inactive
61 | COc1cccc(N2CCN(c3ncnc4c3c(-c3ccccc3)cn4-c3cccc(C(F)(F)F)c3)CC2)c1 | inconclusive: 100 µM [inhibitor, single point]
